Reference: PubChem BioAssay AID504339 (National Center for Advancing Translational Sciences (NCATS), 2011)
About 17,000 (4.4%) of roughly 390,000 compounds were called active. The inconclusive results got no clear call from the source; some entries with a clear call stand among them for comparison. Calls follow the shape of the dose curve; as a rule, active = well fitted inhibition curve with a large enough effect; inconclusive = small, poorly fitted or top-dose-only effect; inactive = no such curve, though single readings can be large or run the other way. Where the call is inconclusive, the potency comes from a doubtful curve fit.

Each compound was assayed against Lysine-specific demethylase 4A (Homo sapiens) (UniProt O75164) (assay: qHTS Assay for Inhibitors of JMJD2A-Tudor Domain). Settings: AlphaScreen JMJD2A-Tudor / H3K4me3 peptide binding; activity change, negative = inhibition: at 114 µM (top of the series).
UniProt O75164, sequence (O75164 whole entry, looked up, the tested form may be a part): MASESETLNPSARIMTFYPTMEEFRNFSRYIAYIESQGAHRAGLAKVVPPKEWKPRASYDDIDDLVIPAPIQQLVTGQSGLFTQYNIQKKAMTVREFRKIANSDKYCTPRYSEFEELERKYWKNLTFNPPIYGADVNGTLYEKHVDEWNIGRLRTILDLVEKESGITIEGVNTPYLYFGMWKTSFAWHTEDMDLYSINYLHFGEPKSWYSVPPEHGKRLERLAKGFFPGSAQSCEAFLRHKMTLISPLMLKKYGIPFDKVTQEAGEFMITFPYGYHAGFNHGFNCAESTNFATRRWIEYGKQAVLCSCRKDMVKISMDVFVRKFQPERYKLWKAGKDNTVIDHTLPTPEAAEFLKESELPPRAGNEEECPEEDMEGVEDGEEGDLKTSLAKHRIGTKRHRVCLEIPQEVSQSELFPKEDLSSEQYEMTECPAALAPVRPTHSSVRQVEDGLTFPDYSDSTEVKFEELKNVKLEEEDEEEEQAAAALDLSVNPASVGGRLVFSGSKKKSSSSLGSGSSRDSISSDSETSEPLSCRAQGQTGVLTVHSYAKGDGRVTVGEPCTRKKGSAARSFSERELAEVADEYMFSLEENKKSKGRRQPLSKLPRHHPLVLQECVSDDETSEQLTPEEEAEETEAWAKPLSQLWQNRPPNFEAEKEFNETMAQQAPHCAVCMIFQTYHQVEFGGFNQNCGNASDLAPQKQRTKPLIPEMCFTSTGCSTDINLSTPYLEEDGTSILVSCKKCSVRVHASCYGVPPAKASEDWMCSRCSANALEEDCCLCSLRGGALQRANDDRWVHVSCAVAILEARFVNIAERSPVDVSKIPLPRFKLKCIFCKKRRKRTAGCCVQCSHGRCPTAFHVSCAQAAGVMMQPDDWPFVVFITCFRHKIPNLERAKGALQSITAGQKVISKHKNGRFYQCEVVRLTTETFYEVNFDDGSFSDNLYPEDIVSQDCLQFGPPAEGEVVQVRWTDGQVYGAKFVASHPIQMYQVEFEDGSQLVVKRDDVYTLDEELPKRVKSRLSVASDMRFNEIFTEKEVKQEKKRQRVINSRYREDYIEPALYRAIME
% is scaled to controls: 0 for no effect and ±100 for the full control effect; potency is read from the fitted curve at half-maximal effect; tags tell the direction and shape of the fitted curve.
Also: nearly all actives have a fitted effect of over 50% in size.

Potency, inconclusive:
O=c1cc(-c2ccccc2)nc(N2CCN(Cc3ccc4c(c3)OCO4)CC2)[nH]1 50.1 µM [inhibitor, partial curve]
COc1ccc(OC)c(NC(=O)COC(=O)COc2ccc(Nc3ccccc3)cc2)c1 15.8 µM [inhibitor, full curve]
CCCCCCSc1cc(-c2nc3cc(C)ccn3c2NCCCC)ccc1OC 39.8 µM [inhibitor, partial curve]
COc1ccccc1-n1c(SCc2cc(=O)oc3cc(O)ccc23)nc2ccccc2c1=O 15.8 µM [inhibitor, full curve, poor fit]
Cc1ccc(C(=O)NC(=S)Nc2ccc3[nH]c(=O)[nH]c3c2)cc1 35.5 µM [inhibitor, single point]
CCOC(=O)c1ccc(N2C(=O)Cc3cc(OCC)c(OCC)cc3C2c2ccccc2)cc1 (centres undefined) 56.2 µM [inhibitor, partial curve]
C=CCN(N=Nc1cccc([N+](=O)[O-])c1)c1cccc([N+](=O)[O-])c1 25.1 µM [inhibitor, partial curve]
Cc1[nH]n(-c2ccccc2)c(=O)c1/C=C1/C=c2ccccc2=N1 56.2 µM [inhibitor, partial curve, poor fit]
O=C(N/N=C/C=C/c1ccccc1)c1cc2c(ccc3ccccc32)o1 89.1 µM [inhibitor, single point]
CCCCOc1cccc(C2C(C(=O)c3ccc(C)o3)=C(O)C(=O)N2c2nnc(C)s2)c1 (centres undefined) 31.6 µM [inhibitor, full curve, poor fit]
O=C(O)c1cc2ccccc2cc1Nc1ccccc1 79.4 µM [inhibitor, partial curve]
COc1ccc(CCNC(=O)CC2SC(N)=NC2=O)cc1OC (centres undefined) 20 µM [inhibitor, partial curve]
CSc1nc(O)c(C(c2ccc(OC(C)C)cc2)c2c(O)nc(SC)[nH]c2=O)c(=O)[nH]1 79.4 µM [inhibitor, single point]
Fc1ccccc1Cn1c2[n+](c3ccc(C(F)(F)F)cc31)CCCCC2 25.1 µM [inhibitor, partial curve]
CN1CCN(C(c2cccnc2)c2ccc3cccnc3c2O)CC1 (centres undefined) 31.6 µM [inhibitor, single point]
Cc1nn(-c2ccccc2)c2c1N(CCCC(=O)NCc1ccccc1)C(=O)CS2 63.1 µM [inhibitor, partial curve]
O=C(/C=C/c1ccc(Br)cc1)c1ccc(NC2=NCCCS2)cc1 28.2 µM [inhibitor, partial curve]
O=C1c2ccccc2-c2onc3ccc(NCc4ccco4)c1c23 100 µM [inhibitor, single point]
Cc1ccc(NC(=O)CCN2C(=O)c3ccccc3C2=O)cc1 89.1 µM [inhibitor, single point]
CCn1c(-c2ccsc2)nc2c1c(=O)[nH]c(=O)n2Cc1ccccc1 112 µM [inhibitor, partial curve, poor fit]
COc1cccc(N2CCN(C(=O)c3ccc4nc(N5CCCCC5)sc4c3)CC2)c1 50.1 µM [inhibitor, partial curve]
COc1cccc(C(c2sc3nc(-c4ccco4)nn3c2O)N2CCN(c3ccccc3F)CC2)c1 (centres undefined) 56.2 µM [inhibitor, partial curve]
Cc1cc(C)cc(NS(=O)(=O)c2ccc(NC(=S)NC(=O)c3cccs3)cc2)c1 17.8 µM [inhibitor, full curve]
Cc1ccc(Cn2c(CCNc3nc(-c4ccc(Cl)c([N+](=O)[O-])c4)cs3)nc3cc(Cl)c(Cl)cc32)cc1 56.2 µM [inhibitor, partial curve, poor fit]
C=C(C)[C@H]1CC=C(C)/C(=N/NC(=O)CNc2ccccc2OC)C1 44.7 µM [inhibitor, partial curve]
Nc1nonc1C(=O)NCCNCc1c(OCc2ccccc2F)ccc2ccccc12 89.1 µM [inhibitor, partial curve]
CCC/C(O)=C1\C(=O)CC(c2ccccc2)CC1=NCCc1c(C)[nH]c2ccc(C)cc12 (centres undefined) 2.51 µM [inhibitor, full curve, poor fit]
COc1ccc(-c2csc(NC(=O)CN3C(=O)C4CCCCC4C3=O)n2)c(OC)c1 (centres undefined) 63.1 µM [inhibitor, partial curve]
Cc1cc(/C=C2/NC(=S)NC2=O)c(C)n1-c1cccnc1 39.8 µM [inhibitor, single point]
COCCC(=O)N1CCC(Oc2ccc(C(=O)N(C)C(C)c3ccon3)cc2)CC1 (centres undefined) 35.5 µM [inhibitor, single point]
CN1CCN(/N=C/c2nc(-c3cccc([N+](=O)[O-])c3)n3ccccc23)CC1 70.8 µM [inhibitor, single point]
CC(=O)NC12CC3CC(C1)CC(C(=O)OCC(=O)Nc1ncc(Cl)c(C)c1Cl)(C3)C2 50.1 µM [inhibitor, partial curve]
COc1ccc2c(c1)CC(C(=O)NCCCN1CCN(c3ccccc3F)CC1)CO2 (centres undefined) 56.2 µM [inhibitor, partial curve]
C=CCNC(=O)/C(C#N)=C/c1c(N(Cc2ccccc2)Cc2ccccc2)nc2ccccn2c1=O 44.7 µM [inhibitor, partial curve]
CCc1c(C)sc2c1CCN(C(=O)Nc1cc(Cl)c(OC)cc1OC)C2c1ccccc1 (centres undefined) 17.8 µM [inhibitor, full curve, poor fit]
COc1ccccc1N(C)S(=O)(=O)c1ccc(Cl)c(C(=O)NCc2ccco2)c1 0.282 µM [inhibitor, full curve, poor fit]
O=C(C1=C[C@H](c2csc3ccccc23)C[C@H](OCc2ccc(CO)cc2)O1)N1CCOCC1 100 µM [inhibitor, single point]
Clc1ccc(/C=N/Nc2nn[nH]n2)cc1 14.1 µM [inhibitor, full curve]
CCn1c(C)c(C)c2cc(C(=O)NCc3ccc(OC)cc3OC)ccc21 39.8 µM [inhibitor, partial curve]

Potency, inactive:
Cc1nc2cc(NC(=O)c3cccc(S(C)(=O)=O)c3)ccc2o1
CC1CC(=O)c2cnc(NCc3ccco3)nc2C1 (centres undefined)
COc1ccc(N2CCN(C(=O)CSc3ccc(C)cc3)CC2)cc1
O=C(CSc1nc(=O)n(CCCN2CCOCC2)c2c1CCCC2)Nc1ccc(Cl)cc1
Nc1nnc(SCC(=O)Nc2ccc(N3CCOCC3)c(Cl)c2)s1
CCC(C)(O)c1[nH]c2ccc(C(=O)OC)cc2c1C (centres undefined)
CCCCC(=O)Nc1ccccc1Oc1ccccc1
CC(=O)NCCC(=O)Nc1cc(S(=O)(=O)N2CCCCC2)ccc1Oc1ccccc1
CCN(CC)C(=O)c1[nH]cnc1C(=O)N[C@@H](C)c1ccccc1
CCc1nc2sc3c(=O)[nH]cnc3c2c2c1CSC(C)(C)C2
N#CN=c1snc(-c2ccccc2Cl)n1-c1ccc(F)cc1
O=C(CN1C(=O)CC(c2ccco2)Sc2ccccc21)Nc1ccc(Br)cc1 (centres undefined)
Cc1ccc(C)c(OCCCN2CCNCC2)c1
COc1ccc(CCNC(=O)CC2SC(=NCc3ccccc3OC)NC2=O)cc1 (centres undefined)
CC(C)(C)c1ccc(C2=NC(C)(C)N(CC(=O)Nc3ccc(F)c(F)c3)C2=O)cc1
COc1ccc(C2CC3(CC(C)(C)NC(=S)N3)Oc3cc(O)cc(C)c32)cc1 (centres undefined)
Cc1cc(C)c[n+](CC(=O)c2ccc(C)c([N+](=O)[O-])c2)c1
CC(C)(O)c1cn(-c2nonc2N)nn1

Potency, active:
CC1(C)CC(=O)C(N=Nc2ccc(C(F)(F)F)cc2[N+](=O)[O-])=C(O)C1 50.1 µM
CCCCc1nc2ccccc2c(NC(=O)CN(CC)CC)c1CCC 28.2 µM
O=C(CNC1CCCC1)Nc1ccc(N2CCCCCC2)cc1 2.82 µM
COc1ccccc1CNCC(=O)Nc1ccc(N(C)C)cc1 3.98 µM
COc1ccc(N2CCN(C(=O)c3cc4c(s3)CCCCC4)CC2)cc1 50.1 µM
Cc1c(C(=O)N(Cc2ccc(N(C)C)cc2)Cc2ccco2)oc2cc(Br)ccc12 17.8 µM
Clc1cccc(CN2CCCCCC2)c1Cl 0.708 µM
CCOc1ccc(NCc2nnc(SCc3ccc(Cl)cc3)n2-c2ccccc2)cc1 22.4 µM
C#CCOCCOCCOCCNc1nc(N2CCN(C(=O)[C@H](Cc3cc4ccccc4[nH]3)n3cc([C@@H](N)C(C)CC)nn3)CC2)nc(N2CCN(C(=O)[C@H](CCCCN)n3cc([C@@H](N)CC(C)C)nn3)CC2)n1 (some centres undefined) 44.7 µM
O=[N+]([O-])c1cc(Br)c(Nc2ccccc2)c([N+](=O)[O-])c1 20 µM
COc1ccc(NC(=O)CN2CCCCC2)cc1S(=O)(=O)N1CCCCC1 2.51 µM

Activity change, negative = inhibition, inconclusive:
Fc1ccccc1C1c2[nH]c3ccccc3c2CCN1Cc1ccoc1 (centres undefined) -48.9% [inhibitor]
